Measured values published in the RNAGym collection of RNA variant scans (doi:10.7554/elife.90254).
Read counts are not given, so values of variants with three or more changes are uncertain.

B1: LINE1-full (parent)
chain: UACGUAGGUGGUUUUCCCCUGAUAGUGCUAAGGGGGCCUGGAAGUUUGGACUGGGCAGAGCUCAACACAGCGUGGCAAAGUGGCUGUGGCUAGACUGCCUCUCUGGAUUCCUCGUCACUCAGCAGGGCAUCUCUGAGAGAAAUGCC

Variants of: B1
Assay: self-cleavage, relative activity (ratio to wild type); higher = more cleavage; in vitro, sequencing; the parent is a self-cleaving ribozyme

Q: With A67G G82A C99U as the variant, how does the self-cleavage read?
A: 0.09

Q: For U20C G114A A121G A129G, which self-cleavage is on record?
A: 1.23

Q: For G4A U9C U62C A117U A142G, which self-cleavage is on record?
A: 0

Q: For U5C A92U C99G U100A, which self-cleavage is on record?
A: 0

Q: Which self-cleavage does the source give for U47C U62C A94G U132A here?
A: 0

Q: With G32U G35A A77U U85C U109C G127A A129G as the variant, how does the self-cleavage read?
A: 0.04

Q: Which self-cleavage does the source give for C98U U112A A117G U119C here?
A: 1.05

Q: For U52C U130C A140G, which self-cleavage is on record?
A: 1.17

Q: For U13C U14C U73A, which self-cleavage is on record?
A: 1.31

Q: Which self-cleavage does the source give for U39C U87A U119C here?
A: 0

Q: For C3U U102C U104C U109A, which self-cleavage is on record?
A: 0.93

Q: With A42G A50G U73C C103U as the variant, how does the self-cleavage read?
A: 1.31

Q: With U39A U108A U109G A129U U130C as the variant, how does the self-cleavage read?
A: 1.15

Q: With U13A G35A G97A as the variant, how does the self-cleavage read?
A: 0.06

Q: With U9A A30G C66U U115A as the variant, how does the self-cleavage read?
A: 0.19

Q: With U12C U47C U52C A138G as the variant, how does the self-cleavage read?
A: 2.76

Q: Which self-cleavage does the source give for A43G U45G G126A here?
A: 1.53

Q: With A79G U102C U119C as the variant, how does the self-cleavage read?
A: 0.4

Q: For U29A G35A A117G, which self-cleavage is on record?
A: 1.61

Q: With A2C U52C A140G as the variant, how does the self-cleavage read?
A: 1.14

Q: For U14C U15C U45C, which self-cleavage is on record?
A: 0.17

Q: With U23C A79G A107G A129G as the variant, how does the self-cleavage read?
A: 0

Q: For U15C C76U U119C A141G, which self-cleavage is on record?
A: 2.78

Q: For G32A U100C U119A A121G, which self-cleavage is on record?
A: 1.27

Q: With C19U U109C U112C as the variant, how does the self-cleavage read?
A: 1.11

Q: With U115C G127U A129G as the variant, how does the self-cleavage read?
A: 0.89

Q: With G10A A22U U23C as the variant, how does the self-cleavage read?
A: 1.01

Q: Which self-cleavage does the source give for A30G A69G U108C here?
A: 0

Q: For U12A U23C U52A, which self-cleavage is on record?
A: 0.78

Q: For A57G A67C A140G, which self-cleavage is on record?
A: 0.06

Q: With U15C U62C A64G U87G A124U as the variant, how does the self-cleavage read?
A: 0

Q: For C37A U87A U119C, which self-cleavage is on record?
A: 0.06

Q: For G33C G53A U115A A121U U132C, which self-cleavage is on record?
A: 1.5

Q: For U14G U62A G135A A136U A141G, which self-cleavage is on record?
A: 0.11

Q: With G41U A78U U134G U143C as the variant, how does the self-cleavage read?
A: 1.45

Q: With C56U U62C A67G G80A as the variant, how does the self-cleavage read?
A: 0.05

Q: Which self-cleavage does the source give for U1A U39A A43C A78G here?
A: 1.23

Q: With U45C A50G U85C A94U A129G A141G as the variant, how does the self-cleavage read?
A: 0

Q: Which self-cleavage does the source give for A57G U62A U115C here?
A: 0.07

Q: Which self-cleavage does the source give for U46C A67G C71U U85C here?
A: 0

Q: With G4A C37A A107G U112C G127A as the variant, how does the self-cleavage read?
A: 1.32

Q: With U9C U96A C118U as the variant, how does the self-cleavage read?
A: 0.06

Q: With A24G A57U A77U U81A A94C as the variant, how does the self-cleavage read?
A: 0.09

Q: Which self-cleavage does the source give for A57U A79G A92G here?
A: 0.11

Q: With U26C U112C A140G as the variant, how does the self-cleavage read?
A: 0.91

Q: For U29C A69U A140G, which self-cleavage is on record?
A: 0.05

Q: For U29C U39A A59G U96C, which self-cleavage is on record?
A: 0.18

Q: For U100C A142G U143C, which self-cleavage is on record?
A: 0

Q: For U26C A57G A138G, which self-cleavage is on record?
A: 1.72

Q: For U12G U13C U91C U108C, which self-cleavage is on record?
A: 0

Q: With A2U U13C G32A as the variant, how does the self-cleavage read?
A: 0.73

Q: For A64C U85C U109C A136G, which self-cleavage is on record?
A: 0

Q: For A30G G36A A67G, which self-cleavage is on record?
A: 0.63

Q: With U45A G89A A141G as the variant, how does the self-cleavage read?
A: 0.05

Q: For U12G A30G A31G U102C, which self-cleavage is on record?
A: 2.3

Q: For A31G C90U A129G A140G U143C, which self-cleavage is on record?
A: 0.02

Q: Which self-cleavage does the source give for U20C A30U C37A A64U U91A A107G here?
A: 0

Q: For C61A A77G C84U U130A A136G A138G C145U, which self-cleavage is on record?
A: 0

Q: For C98U U104A C123U, which self-cleavage is on record?
A: 0.1

Q: For A2G A57G G93U A124G, which self-cleavage is on record?
A: 0.12

Q: Which self-cleavage does the source give for C38A A50G G55C A79G here?
A: 0

Q: Which self-cleavage does the source give for G36A A69U U100C U102A here?
A: 0.04

Q: For A57U A69U A124U, which self-cleavage is on record?
A: 0

Q: With C95G U132C A142G as the variant, how does the self-cleavage read?
A: 0.05

Q: For U12C A64G C111U, which self-cleavage is on record?
A: 0.57

Q: Which self-cleavage does the source give for A2G A31G A77U U100C U115A here?
A: 0.92

Q: For A59G A65G U85A, which self-cleavage is on record?
A: 0

Q: With U13G U96C U112A U134A as the variant, how does the self-cleavage read?
A: 0.54

Q: With A30G U52A U73A U81A A94G as the variant, how does the self-cleavage read?
A: 0.97

Q: Which self-cleavage does the source give for U14C U47C G72A here?
A: 1.55

Q: With C99A A138G U143C as the variant, how does the self-cleavage read?
A: 0.78

Q: Which self-cleavage does the source give for A59G U73A U87C A129G here?
A: 0

Q: For U5C U13C G53U A124U, which self-cleavage is on record?
A: 1.75

Q: Which self-cleavage does the source give for A42G A77G U108C here?
A: 2.92

Q: With A78G C99U A136G as the variant, how does the self-cleavage read?
A: 1.34

Q: For U5A U9C U12G A64C A69C, which self-cleavage is on record?
A: 0

Q: For U15C G32A U39A U87A U115A, which self-cleavage is on record?
A: 0.05

Q: For U13A A22G U46C A50G A136G, which self-cleavage is on record?
A: 2.04

Q: For U45C A92G U104A U109C, which self-cleavage is on record?
A: 0

Q: Which self-cleavage does the source give for U15C A24U A43U here?
A: 1.54

Q: With U45A U104C U119C U130A as the variant, how does the self-cleavage read?
A: 1.95

Q: With A30U U85A U102C G127A as the variant, how does the self-cleavage read?
A: 0.04

Q: For U9C G83A A129U, which self-cleavage is on record?
A: 1.29

Q: For U47C U62C C71U, which self-cleavage is on record?
A: 0.02
